Values joined by “and” are separate entries in the source; they are usually repeats but may differ in a detail not shown here. Identical values can stand only once. Hit rate of the full screen: of about 410,000 compounds, about 310 (0.076%) were called active. The shares of active, inactive and inconclusive entries below differ from those in the screen. Calls come from the whole dose curve; as a rule, active = well fitted curve in the direction sought with a large enough effect; inconclusive = small, poorly fitted or top-dose-only effect; inactive = flat fitted curve, though single readings scatter. Where the call is inconclusive, the potency comes from a doubtful curve fit.
Each molecule was assayed against DNA dC->dU-editing enzyme APOBEC-3G (Homo sapiens) (UniProt Q9HC16) (assay: qHTS for Inhibitors of Vif-A3G Interactions: qHTS). Settings: HeLa A3G-eYFP + Vif (tagged APOBEC3G with the HIV-1 protein that degrades it), YFP fluorescence, overnight; series mostly up to 46.1 µM; activity, negative = active: at the top concentration.
Excerpt: The recent discovery and characterization of host restriction factors, which provide a potent defense to invading retroviruses, has provided new targets for antiviral drug development. APOBEC3G (A3G) and APOBEC3F (A3F) are potent cytidine deaminases that block HIV-1 replication; HIV-1 expresses the Vif protein, which counteracts A3G and A3F by binding to them and inducing their proteasomal degradation. The Vif-A3G and Vif-A3F interactions provide two potential targets for development of small molecules which can interfere with the ability of Vif to degrade A3G or A3F. […] To identify inhibitors that can interfere with Vif mediated degradation of A3G and A3F, we have developed Hela cell lines that stably express A3G or A3F tagged with eYFP at the C-terminal end (A3G-eYFP or A3F-eYFP, respectively) and Vif. In the absence of an inhibitor, Vif induces degradation of A3G-eYFP and A3F-eYFP, and the cells are not fluorescent. In the presence of an inhibitor, it is expected that Vif will be unable to degrade A3G-eYFP and/or A3F-eYFP, resulting in an increase in yellow fluorescence. In this assays Vif A3G was screened against the Molecular Library Small Molecule Repository (MLSMR). NIH Chemical Genomics Center [NCGC] NIH Molecular Libraries Probe Centers Network [MLPCN] MLPCN Grant: MH093245 Assay Submitter (PI): Vinay Pathak, National Cancer Institute
5 uL of 700 cells/well of A3G-YFP cells are dispensed into black, clear bottom plates. The plates are incubated overnight at 37 deg C. 23 nL of compounds are added by pintool. The plates are incubated overnight at 37 deg C and then read on the TTP Acumen (Ex 488/ Em 500-530).
% is set by controls: 0 for no effect and ±100 for the full control effect; potency is the fitted concentration of half-maximal effect; tags give direction and shape of the fitted curve.
Note: nearly all actives have a fitted effect of over 60% in size.
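Throughout, for activity, negative = active: hits raise eYFP signal because A3G escapes Vif-driven loss.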

Sequence of UniProt Q9HC16 (Q9HC16 whole entry, looked up): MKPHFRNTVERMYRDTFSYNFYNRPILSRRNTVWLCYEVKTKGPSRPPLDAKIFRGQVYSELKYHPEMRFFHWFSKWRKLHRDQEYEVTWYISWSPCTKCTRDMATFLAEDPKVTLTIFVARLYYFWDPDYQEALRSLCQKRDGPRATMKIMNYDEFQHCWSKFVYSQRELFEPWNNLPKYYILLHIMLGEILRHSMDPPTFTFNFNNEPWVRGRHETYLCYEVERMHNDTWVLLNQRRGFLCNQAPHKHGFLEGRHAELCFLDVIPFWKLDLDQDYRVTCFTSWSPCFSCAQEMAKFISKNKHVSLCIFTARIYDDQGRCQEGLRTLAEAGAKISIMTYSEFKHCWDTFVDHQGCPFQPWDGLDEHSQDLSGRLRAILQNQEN

Row | SMILES | activity, negative = active | Potency
1 | O=C(O)C1CCC(NSc2ccccc2[N+](=O)[O-])CC1 (centres undefined) | inactive: 1.56% | 
2 | COc1ccccc1-c1cc(C(=O)NCCc2ccccc2)no1 |  | inconclusive: 8.91 µM [inhibitor, partial curve, poor fit] and inconclusive: 3.55 µM [inhibitor, full curve, poor fit]
3 | Cc1cccc(NC(=O)CSc2nc3ccccc3c3nc(CCc4c(C)n[nH]c4C)nn23)c1 |  | inconclusive: 28.2 µM [inhibitor, single point]
4 | O=C1C(=Cc2ccccc2[N+](=O)[O-])Cc2ccccc21 |  | inconclusive: 15.8 µM [inhibitor, partial curve, poor fit]
5 | O=C(c1c[nH]c(C(=O)N2CCN(c3ccccc3F)CC2)c1)c1cccc(Cl)c1Cl |  | inconclusive: 5.62 µM [inhibitor, single point]
6 | COc1cc(N2CCCC2)c(OC)cc1/C=C(/C#N)c1cccc(Br)c1 |  | inconclusive: 15.8 µM [inhibitor, partial curve, poor fit]
7 | CCOC(=O)c1ccc(NC(=O)CSc2nc(-c3cccs3)cc(C(F)(F)F)c2C#N)cc1 |  | inconclusive: 25.1 µM [inhibitor, single point]
8 | CCS(=O)(=O)c1oc(-c2ccc(F)cc2)nc1S(=O)(=O)c1ccc(Br)cc1 |  | inconclusive: 7.08 µM [inhibitor, partial curve, poor fit]
9 | COc1ccc2ccccc2c1C1NC(=O)c2ccccc2N1 (centres undefined) |  | inconclusive: 3.98 µM [inhibitor, partial curve, poor fit]
10 | COc1cc(-c2noc(C)c2C#Cc2ccc(N)cc2)cc(OC)c1OC |  | inconclusive: 12.6 µM [inhibitor, partial curve, poor fit]
11 | O=C(Nc1nc(COc2ccccc2)cs1)C12CC3CC(CC(C3)C1)C2 | inactive: 1.14% | 
12 | O=C(OCCN1C(=O)c2cccc3c(N4CCOCC4)ccc(c23)C1=O)c1ccc(Cl)cc1Cl |  | inconclusive: 2.24 µM [inhibitor, partial curve, poor fit]
13 | CCOc1ccccc1Nc1nnc(-c2cc3cc(Cl)ccc3oc2=O)s1 |  | inconclusive: 14.1 µM [inhibitor, partial curve, poor fit]
14 | Cc1cccc(OCC(=O)Nc2cc(S(=O)(=O)N3CCOCC3)ccc2N2CCCC2)c1C | inactive: 0.323% | 
15 | N#Cc1c(Sc2ncc(C(F)(F)F)cc2Cl)nsc1C/C=N\OCc1c(F)cccc1Cl |  | inconclusive: 25.1 µM [inhibitor, single point]
16 | Cc1cc(C(=O)OCC(=O)Nc2c(F)cccc2F)c(C)n1-c1ccccc1 | inactive: 1.63% | 
17 | CN(C)c1ccc(/C=C/c2ccnc3ccc(N)cc23)cc1 |  | inconclusive: 17.8 µM [inhibitor, partial curve, poor fit]
18 | CC(CC(=O)Nc1ccc2c(c1)c(=O)n(C)n2-c1cccs1)c1ccccc1 (centres undefined) |  | inconclusive: 6.31 µM [inhibitor, full curve, poor fit]
19 | Cc1ccc(S(=O)(=O)N2CCN(c3nc(-c4cccs4)nc4cccnc34)CC2)cc1 | inactive: -0.521% | 
20 | Cn1cc(/C=C2\SC(=S)N(NC(=O)c3ccccc3)C2=O)c2ccccc21 | inactive: 5.47% | 
21 | COc1ccccc1N1CCN(C(=O)c2ccc(-c3ccc(Cl)cc3)o2)CC1 |  | inconclusive: 1.12 µM [inhibitor, full curve, poor fit]
22 | O=C(NC(=S)Nc1c(Cl)cc(Cl)cc1Cl)c1ccccc1 | inactive: 1.89% | 

Row | SMILES | activity, negative = active | Potency
23 | CCOC(=O)Nc1cc(=O)c2ccccc2o1 |  | inconclusive: 7.94 µM [inhibitor, partial curve, poor fit]
24 | CCCc1nc2sc3c(c2c(=O)n1NC(=O)CCCl)CCCC3 |  | inconclusive: 11.2 µM [inhibitor, partial curve]
25 | CCOc1ccc(OCC(=O)Nc2ccccc2N2CCCC2)cc1 |  | inconclusive: 7.08 µM [inhibitor, partial curve, poor fit]
26 | CCC(C)NC(=O)c1ccc2c(c1)N=C(C)c1cc(C)ccc1S2 (centres undefined) |  | inconclusive: 0.562 µM [inhibitor, full curve, poor fit]
27 | O=[N+]([O-])c1cc(-c2nnc(Nc3ccc(O)cc3)c3ccccc23)ccc1N1CCOCC1 |  | inconclusive: 35.5 µM [inhibitor, single point]
28 | CCC(C)NCCCOc1c(C)cc(C)cc1Br (centres undefined) | inactive: 1.59% | 
29 | CCCOC(=O)c1ccc(-c2ccc(C=O)o2)cc1 | inactive: 1.81% | 
30 | CCCn1c(C(O)c2ccc3c(c2)OCO3)nc2ccccc21 (centres undefined) | inactive: 0.373% | 
31 | COC(=O)c1cc(OC)c(OC)cc1NC(=O)Cn1nnc(-c2ccccc2Cl)n1 |  | inconclusive: 22.4 µM [inhibitor, single point]
32 | CC(=O)Oc1ccc(C(=O)c2ccccc2)c(OC(C)=O)c1 |  | inconclusive: 20 µM [inhibitor, partial curve, poor fit]
33 | Cc1c(F)cccc1NS(=O)(=O)c1ccc2c(c1)n(C)c(=O)c(=O)n2C | inactive: -5.12% | 
34 | CO/N=C/c1ccc(OC)c(Oc2nc(OC)cc(OC)n2)c1 |  | inconclusive: 15.8 µM [inhibitor, partial curve, poor fit]
35 | CSc1ccccc1CNc1nc(NCC2CC2)nc2ccsc12 |  | inconclusive: 25.1 µM [inhibitor, single point]
36 | COc1cc(-c2cc(NC=O)c3ncc(-c4ccc(C(C)=O)cc4)n3c2)ccc1O |  | inconclusive: 11.2 µM [inhibitor, partial curve, poor fit]
37 | O=C(COC(=O)c1ccccc1)c1ccc(S(=O)(=O)N2CCCCC2)cc1 |  | inconclusive: 28.2 µM [inhibitor, single point]
38 | CCCCn1c(NC(=O)c2ccccc2)c(C#N)c2nc3ccccc3nc21 |  | inconclusive: 31.6 µM [inhibitor, single point]
39 | CCN(CC)c1ccc(/C=C2/SC(=O)N(C(C)C)C2=O)o1 |  | inconclusive: 3.55 µM [inhibitor, partial curve, poor fit]
40 | O=C1C(=Cc2ccccn2)CCc2ccccc21 |  | inconclusive: 22.4 µM [inhibitor, single point]
41 | CCOC(=O)c1cnc2ccccc2c1Nc1cccc(OC)c1 | inactive: 1.12% | 
42 | COc1ccc(CNC(=O)C2Cc3c(-c4cccc(C(C)=O)c4)ccnc3O2)cc1OC (centres undefined) |  | inconclusive: 10 µM [inhibitor, partial curve, poor fit]
43 | O=C1CC(c2cccc(Cl)c2Cl)c2cc3c(cc2N1)OCCO3 (centres undefined) |  | inconclusive: 11.2 µM [inhibitor, partial curve, poor fit]
44 | Cc1ccc2nc(-c3ccc(NC(=S)NC4CC(C)(C)NC(C)(C)C4)cc3)sc2c1 |  | inconclusive: 25.1 µM [inhibitor, single point]

Row | SMILES | activity, negative = active | Potency
45 | CCCN(CC(=O)Nc1ccc(Cl)cc1Cl)C(=O)/C=C/c1ccco1 |  | inconclusive: 28.2 µM [inhibitor, single point]
46 | CCN1CCN(c2ccc(S(=O)(=O)N3CCCCC3)cc2NC(=O)/C=C/c2cccc(OC)c2OC)CC1 |  | inconclusive: 35.5 µM [inhibitor, single point]
47 | COc1ccc(NC(=O)C(=O)NCC2CCCN2S(=O)(=O)c2cccs2)cc1 (centres undefined) |  | inconclusive: 4.47 µM [inhibitor, partial curve]
48 | O=C(Nc1cc(=O)[nH]c(=O)[nH]1)c1cc(Cl)ccc1Cl |  | inconclusive: 2.51 µM [inhibitor, full curve, poor fit]
49 | O=C(c1ccc(S(=O)(=O)N2CCOCC2)cc1)N1CCN(C2=NS(=O)(=O)c3ccccc32)CC1 | inactive: 0.873% | 
50 | CCCCOc1ccc(C2=NNC(=O)CC2)cc1 |  | inconclusive: 2.82 µM [inhibitor, full curve]
51 | COc1ccc(C2c3ccc4ccccc4c3Oc3ncn(CCO)c(=N)c32)cc1 (centres undefined) |  | inconclusive: 35.5 µM [inhibitor, single point]
52 | CC(=O)N1CCc2c(sc(NC(=O)CCS(=O)(=O)c3ccccc3)c2C#N)C1 |  | inconclusive: 25.1 µM [inhibitor, single point]
53 | COc1cccc(C2c3c(-c4ccccc4)n[nH]c3C(=O)N2c2ccc(C(=O)O)cc2)c1 (centres undefined) | inactive: 0.884% | 
54 | COC(=O)C(Sc1ccc(Cl)cc1)C1SC(=S)N(Cc2ccccc2)C1=O (centres undefined) |  | inconclusive: 35.5 µM [inhibitor, single point]
55 | COc1cccc(NC(=O)c2sc3ncn(CC(=O)N4CCN(c5ccccn5)CC4)c(=O)c3c2C)c1 | inactive: 4.57% | 
56 | S=c1[nH]nc(-c2ccncc2)n1/N=C/C(Cl)=C\c1ccccc1 |  | inconclusive: 35.5 µM [inhibitor, single point]
57 | S=C(NCc1ccncc1)Nc1ccc(Cl)c(Cl)c1 | inactive: -11.8% | 
58 | COc1ccc(-n2cccc2/C=C/[N+](=O)[O-])cc1 |  | inconclusive: 22.4 µM [inhibitor, single point]
59 | C#CC(=O)N(c1cc(OC)ccc1OC)C(C(=O)NC1CCCC1)c1cccs1 (centres undefined) |  | inconclusive: 15.8 µM [inhibitor, single point]
60 | CCOC(=O)c1ccc(NC2=CC(=O)C(=O)c3ccccc32)cc1 |  | inconclusive: 4.47 µM [inhibitor, partial curve, poor fit]
61 | CCCCCCCCCCCCCCCCCCN(CCCCCCCCCCCCCCCCCC)c1ccc(C=O)cc1 | inactive: -0.97% | 
62 | CC(CN1CCOCC1)OC(=O)c1ccc(Br)cc1 (centres undefined) |  | inconclusive: 35.5 µM [inhibitor, single point]
63 | O=C(c1ccc(-c2nnc(Nc3cccc(Cl)c3)c3ccccc23)cc1)N1C[C@H]2C[C@H](C1)c1cccc(=O)n1C2 |  | inconclusive: 35.5 µM [inhibitor, single point]
64 | Cc1nc(C)c2c(=O)cc(-c3ccccc3)[nH]c2n1 |  | inconclusive: 8.91 µM [inhibitor, partial curve]
